PubChem BioAssay AID463173 (ICCB-Longwood Screening Facility, Harvard Medical School, 2010)
Among all 52,000 compounds or so, about 1,700 (3.3%) were called active. Rule as the data show it: active = survival mostly below about 52% (no sharp cut-off); inactive = mostly above about 56%. The list shows a part of the results.

Test system: Wild type
Assay: S. aureus survival, RN4220 and DeltatarO strains – OD600, teichoic acid synthesis inhibitors, primary screen (AID 463173)
Settings: S. aureus RN4220 wild type/DeltatarO growth, OD600, 18 h, stronger effect = lower value, screened at 18.75 µg/mL (by protocol)

Row | Structure (SMILES) | survival
1 | NC(=O)C1(N2CCCCC2)CCN(C(=O)Nc2ccc(F)cc2F)CC1 | inactive: 115%
2 | NS(=O)(=O)c1ccc(NC(=O)C(=O)Nc2ccc3nc4n(c(=O)c3c2)CCCCC4)cc1 | inactive: 89%
3 | Cc1cc(NC(=O)C2CCN(S(=O)(=O)c3cccc4nsnc34)CC2)ccc1Br | inactive: 79%
4 | Cc1ccc(Cn2ccnc2SCC(=O)Nc2nc3ccccc3s2)cc1 | inactive: 125%
5 | Cc1cccc(-n2ncc3c(N4CCCC(C)C4)ncnc32)c1 (centres undefined) | inactive: 77%
6 | C#CCOc1ccc(C2CC(=O)Nc3c2c(C)nn3-c2nc(C)cc(C)n2)cc1 (centres undefined) | inactive: 79%
7 | CCN=c1sc(C(=O)NCCc2ccccc2)cc(=O)n1CC | inactive: 105%
8 | Cc1cccc(C(=O)N2c3nc(-c4ccco4)nn3C3(CCCCC3)[C@@H]3CCCC[C@@H]32)c1 | inactive: 76%
9 | O=c1ccc(-c2ccccc2)nn1Cc1ccc(F)cc1Cl | inactive: 81%
10 | CCOc1ccc2nc(N3CCCC(C(=O)Nc4cc(Cl)c(OC)cc4OC)C3)sc2c1 (centres undefined) | inactive: 106%
11 | Cc1c(C(=O)Nc2cccc(-c3nc4ccccc4s3)c2)oc2ccccc12 | inactive: 98%
12 | COc1ccccc1NC(=O)N1CCN2C(=O)c3ccccc3C12c1ccccc1 (centres undefined) | inactive: 111%
13 | CCCCCCSc1nnc2c(n1)OC(C)Nc1ccc(Br)cc1-2 (centres undefined) | inactive: 66%
14 | CCOC(=O)c1ccccc1NC(=O)COc1ccccc1-c1nnc(-c2ccccc2)o1 | inactive: 22%
15 | CC(C)CNC(=O)c1ccc(CN2CCOCC2)cc1 | inactive: 101%
16 | CSc1nn(Cc2cccc(C)c2)c(N)c1S(=O)(=O)c1ccccc1 | inactive: 130%
17 | COc1ccc(CNC(=O)c2ccc(NC(=O)N3CCSc4ccccc43)cc2)cc1 | inactive: 69%
18 | COc1cc(NC(=O)C(CC(C)C)NS(=O)(=O)c2ccc3c(c2)CCN3C(C)=O)cc(OC)c1 (centres undefined) | inactive: 78%
19 | CCc1ccc(CNCc2c(C(=O)O)n(Cc3ccc(C)cc3)c3cc(C)ccc23)cc1 | inactive: 27%
20 | Cc1ccccc1Cn1c2ccccc2c2cnn(CC(=O)NC3CCC(C)CC3)c(=O)c21 (centres undefined) | inactive: 78%
21 | COc1cc2c(=O)n(CCC(=O)NCC3CCCO3)c(=O)n(CC(=O)Nc3ccc(C)cc3C)c2cc1OC (centres undefined) | inactive: 79%
22 | Cc1ccc2nc(-c3ccc(NC(=O)c4ccc(S(C)(=O)=O)cc4)cc3)sc2c1 | inactive: 63%
23 | Cc1ccc(NC(=O)CC(C)S(=O)(=O)c2ccc3c(c2)NC(=O)CO3)c(Cl)c1 (centres undefined) | inactive: 87%
24 | CC(C)c1ccc2oc(-c3ccc(NC(=O)c4cccc(Br)c4)cc3)nc2c1 | inactive: 70%
